In PMC4336329 (PLoS ONE, 2015):
Screen size: about 310,000 compounds; about 2,200 (0.71%) showed an effect of 50% or more. The effect is printed as a negative number. The list shows a part of the results.

target: human ether-à-go-go-related gene (hERG) potassium channel (human, UniProt Q12809); test: primary screen, population patch clamp on CHO cells stably expressing hERG
Sequence (Q12809 whole entry, looked up): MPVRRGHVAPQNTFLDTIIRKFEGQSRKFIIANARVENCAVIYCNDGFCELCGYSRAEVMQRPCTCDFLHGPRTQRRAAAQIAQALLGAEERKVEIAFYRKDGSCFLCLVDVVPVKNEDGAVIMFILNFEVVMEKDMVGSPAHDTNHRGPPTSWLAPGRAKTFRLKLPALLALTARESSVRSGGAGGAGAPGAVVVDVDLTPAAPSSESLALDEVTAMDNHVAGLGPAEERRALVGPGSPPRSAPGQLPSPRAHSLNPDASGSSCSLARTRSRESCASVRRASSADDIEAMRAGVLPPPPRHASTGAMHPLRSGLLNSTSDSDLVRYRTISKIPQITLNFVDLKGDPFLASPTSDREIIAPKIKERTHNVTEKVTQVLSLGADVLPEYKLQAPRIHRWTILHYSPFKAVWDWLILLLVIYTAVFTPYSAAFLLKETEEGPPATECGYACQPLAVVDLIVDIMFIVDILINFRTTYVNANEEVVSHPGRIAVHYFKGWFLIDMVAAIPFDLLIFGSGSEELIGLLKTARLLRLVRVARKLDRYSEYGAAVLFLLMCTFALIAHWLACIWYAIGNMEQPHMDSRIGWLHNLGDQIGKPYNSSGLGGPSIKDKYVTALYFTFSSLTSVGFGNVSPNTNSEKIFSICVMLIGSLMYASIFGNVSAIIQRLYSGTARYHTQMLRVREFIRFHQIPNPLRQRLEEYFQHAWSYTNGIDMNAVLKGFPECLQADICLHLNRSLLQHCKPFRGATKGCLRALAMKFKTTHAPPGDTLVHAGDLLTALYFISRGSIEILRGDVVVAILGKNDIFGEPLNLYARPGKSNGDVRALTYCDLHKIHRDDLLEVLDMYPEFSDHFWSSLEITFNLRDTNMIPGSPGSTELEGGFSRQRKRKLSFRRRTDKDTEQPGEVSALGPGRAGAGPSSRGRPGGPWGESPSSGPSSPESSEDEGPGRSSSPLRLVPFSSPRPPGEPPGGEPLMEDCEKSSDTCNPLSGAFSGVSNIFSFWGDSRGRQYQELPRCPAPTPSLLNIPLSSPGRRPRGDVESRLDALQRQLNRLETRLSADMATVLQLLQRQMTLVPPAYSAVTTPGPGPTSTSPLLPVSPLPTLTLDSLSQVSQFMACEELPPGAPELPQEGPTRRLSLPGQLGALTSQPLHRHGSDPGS

Row | Compound | hERG current change (%, negative = inhibition) at 1uM
1 | Br.CCCn1c(=N)n(CC(=O)c2ccc([N+](=O)[O-])cc2)c2ccccc21 | -38.9%
2 | COc1ccc(C(=O)NCc2cn3ccsc3n2)cc1OC | 13.3%
3 | O=C(Nc1cccc(C(F)(F)F)c1)c1sc(Cl)nc1C(F)(F)F | 14.1%
4 | O=C(COc1ccc(/C=N/NS(=O)(=O)c2ccccc2)cc1)NCc1ccccc1 | 11.2%
5 | CCc1nnc(NC(=O)c2ccc(OCc3c(C)noc3C)c(OC)c2)s1 | 6.83%
6 | CS(=O)(=O)N(CC(=O)NCCSCc1ccccc1)c1ccccc1Cl | -1.46%
7 | O=C(CCn1cccn1)Nc1ccc2c(c1)OCO2 | 9.43%
8 | CCc1ccc(C2=NN(CCC(=O)NCc3cccs3)C(=O)CC2)cc1 | 1.59%
9 | O=C(N1CCN(Cc2ccc3c(c2)OCO3)CC1)C12CC3CC(CC(C3)C1)C2 | 8.52%
10 | CC(C)Oc1ccc(C(=O)NC(=S)N2CCOCC2)cc1 | 6.62%
11 | CC(NC(=S)Nc1ccccc1OC(F)F)C(C)(C)C (stereo not drawn) | 1.33%
12 | CN(C)Cc1ccccc1OC(=O)N(C)C.O=C(O)/C=C/C(=O)O | 2.93%
13 | O=C(COc1ccc(N2C(=O)c3ccccc3C2=O)cc1)c1ccccc1 | 21.4%
14 | O=C(NCc1ccc(F)cc1)C1CCN(S(=O)(=O)N2CCOCC2)CC1 | 13%
15 | CCN(CC(=O)Nc1ccc(OC)cc1)CC(=O)Nc1ccc2c(c1)OCO2 | -9.11%
16 | COc1ccc(NC(=O)CSc2nnc(-c3ccco3)n2C)cc1 | 6.35%
17 | Cc1sc(NC(=O)CN2CCCC2)nc1-c1ccc2c(c1)CCN2C(=O)c1ccc(F)cc1 | 15.4%
18 | O=C(CCc1ccccc1)Nc1ncc([N+](=O)[O-])s1 | 10.2%
19 | CC(C)(ONC(=O)Nc1ccccc1Cl)C(=O)O | 10.3%
20 | O=P(O)(O)C(O)C(F)(F)C(F)(F)C(F)(F)C(F)F (stereo not drawn) | 21.8%
21 | O=C(COC(=O)/C=C/c1ccco1)NCc1ccc2c(c1)OCO2 | 14%
22 | Br.CCn1c(=N)n(Cc2ccccc2F)c2ccccc21 | -1.81%
23 | COCCN1Cc2cccc(C(=O)Nc3ccc(C)c(C)c3)c2C1=O | 13.6%

Row | Compound | hERG current change (%, negative = inhibition) at 1uM
24 | COC(=O)c1ccc(Oc2ccc3nncn3n2)cc1 | 2.62%
25 | CC(=O)c1cccc(CN2CCN(Cc3ccc(C)cc3)C(CCO)C2)c1 (stereo not drawn) | -34.4%
26 | Cc1cc(=O)[nH]c(SCC(=O)Nc2c(C)n(C)n(-c3ccccc3)c2=O)n1 | -2.17%
27 | Cc1cc(NC(=O)c2cccc(Br)c2)no1 | 15%
28 | COc1cccc2c(=O)n(CC(=O)N3CCCc4ccccc43)ccc12 | 4.3%
29 | Cc1nc2cc(NC(=O)c3ccc(S(=O)(=O)N(C)c4ccccc4)cc3)ccc2o1 | 14.9%
30 | COc1ccc(CNC(=O)c2ccc3c(=O)n(-c4ccccc4)c(=O)[nH]c3c2)cc1 | 12.5%
31 | Cc1ccc(-c2noc(CNCCCN(C)C)n2)cc1 | 10.5%
32 | Cc1ccc(NS(=O)(=O)c2ccc3c(c2)NC(=O)CCS3)cc1C | 11.4%
33 | CCCC1CC(C)(c2csc(Nc3ccc(OCC)cc3)n2)OC1=O (stereo not drawn) | -0.99%
34 | CC(C)NC(=O)CSc1nc(Cc2ccccc2)nc2ccccc12 | 18.3%
35 | Cc1nn(C)c(C)c1/C=C(/C(=O)C(C)(C)C)n1cncn1 | 15.3%
36 | CCOC(=O)C1=C(O)C(=O)N(c2ccc(S(N)(=O)=O)cc2)C1c1ccc([N+](=O)[O-])cc1 (stereo not drawn) | -4.62%
37 | Cc1ccccc1NC(=O)c1cccc2c1C(=O)N(C1CCCCC1)C2 | 15%
38 | CCc1nc2ccc(C(=O)N3CCN(c4ccccc4F)CC3)cc2nc1CC | 10.7%
39 | O=C(CN1C(=O)NC2(CCCCCC2)C1=O)Nc1cccc(F)c1 | 2.71%
40 | COc1cccc(NC(=O)CN(C)C(=O)c2cc(-c3ccc(F)cc3)nc3ccccc23)c1 | -1.95%
41 | O=C(O)c1cccc(NCc2ccncc2)c1 | 11.5%
42 | O=C(Nc1nc2ccccc2[nH]1)C1CCN(S(=O)(=O)c2cccs2)CC1 | 12%
43 | COc1ccc(/C=N\NC(=O)COc2ccc(Cl)cc2Cl)c(C(=O)O)c1OC | 4.37%
44 | COC(=O)c1cccc(C23CC4(C2)[C@H](CN(Cc2ccc(C(F)(F)F)cc2)[C@@H]4c2ccccc2)C3c2ccc(C(F)(F)F)cc2)c1 (stereo partly drawn) | 5.76%
45 | Nc1ccccc1S(=O)(=O)C(F)F | 16.3%
